Source: article PMC4336329 (PLoS ONE, 2015)
About 2,200 (0.71%) of roughly 310,000 compounds showed an effect of 50% or more. Effects have a minus sign here. This is one part of the list.

target: human ether-à-go-go-related gene (hERG) potassium channel (human, UniProt Q12809); assay: primary screen, population patch clamp on CHO cells stably expressing hERG
Sequence (Q12809 whole entry, looked up): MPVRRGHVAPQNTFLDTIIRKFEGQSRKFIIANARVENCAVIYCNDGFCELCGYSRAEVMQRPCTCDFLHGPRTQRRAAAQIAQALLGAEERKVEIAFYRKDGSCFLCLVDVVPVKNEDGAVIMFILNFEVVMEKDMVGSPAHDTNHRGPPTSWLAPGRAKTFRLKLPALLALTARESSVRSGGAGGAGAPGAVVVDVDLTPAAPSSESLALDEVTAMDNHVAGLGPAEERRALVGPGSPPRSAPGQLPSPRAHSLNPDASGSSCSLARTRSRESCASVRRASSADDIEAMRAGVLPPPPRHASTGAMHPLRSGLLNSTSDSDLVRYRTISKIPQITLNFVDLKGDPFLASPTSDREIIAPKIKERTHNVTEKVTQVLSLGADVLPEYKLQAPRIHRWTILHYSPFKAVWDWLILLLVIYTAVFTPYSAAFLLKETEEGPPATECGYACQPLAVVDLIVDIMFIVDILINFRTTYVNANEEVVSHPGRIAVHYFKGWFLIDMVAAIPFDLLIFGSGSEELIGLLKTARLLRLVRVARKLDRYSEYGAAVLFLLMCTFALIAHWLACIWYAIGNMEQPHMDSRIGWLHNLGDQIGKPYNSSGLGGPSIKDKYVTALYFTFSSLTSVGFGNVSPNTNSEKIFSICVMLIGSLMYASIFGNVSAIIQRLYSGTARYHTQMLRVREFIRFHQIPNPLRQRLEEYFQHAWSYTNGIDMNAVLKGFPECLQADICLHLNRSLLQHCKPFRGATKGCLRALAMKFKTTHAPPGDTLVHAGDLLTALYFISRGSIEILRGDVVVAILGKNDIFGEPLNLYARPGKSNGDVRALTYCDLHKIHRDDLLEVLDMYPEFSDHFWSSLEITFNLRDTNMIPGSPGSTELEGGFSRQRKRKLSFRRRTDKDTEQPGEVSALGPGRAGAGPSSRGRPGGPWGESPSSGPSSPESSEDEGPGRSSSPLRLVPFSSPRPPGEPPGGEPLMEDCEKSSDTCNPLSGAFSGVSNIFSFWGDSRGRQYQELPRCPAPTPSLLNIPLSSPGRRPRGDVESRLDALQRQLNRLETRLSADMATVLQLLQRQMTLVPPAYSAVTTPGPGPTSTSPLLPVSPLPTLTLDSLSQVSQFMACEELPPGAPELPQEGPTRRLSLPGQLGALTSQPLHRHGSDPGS

| Structure (SMILES) | hERG current change (%, negative = inhibition) at 1uM |
| --- | --- |
| CCN(CCNC(=O)C1CCCN(S(=O)(=O)CC)C1)c1ccccc1 (stereo not drawn) | -0.0618% |
| COCCCNC(=O)Cn1cc(C(C)=O)c2ccccc21 | 17.6% |
| CCN(CC)S(=O)(=O)c1cccc(NC(=O)COc2ncnc3sccc23)c1 | 3.76% |
| Cc1cccc(NC(=O)N2C3CCCC2CC(NC(=O)C(C)(C)C)C3)c1 (stereo not drawn) | 7.54% |
| CCCc1nnc(SCC(=O)NC2CCCC2)n1CCOC | 14.3% |
| CSCc1cc(N2CCOCC2)nc(SCc2ccc(Cl)c(Cl)c2)n1 | 11.9% |
| CCCCC(=O)NC(=S)Nc1cccc(Cl)c1N1CCCCC1 | 6.67% |
| CCN(CC)C(=O)CSc1nc(N)c2c3c(sc2n1)CC(C)CC3 (stereo not drawn) | 4.7% |
| COc1ccccc1/C=N/n1c(C)nnc1-n1nc(C)cc1C | 8.73% |
| CCc1cccc2c(C(=O)C(F)(F)F)cn(CC(=O)NCC3CCCO3)c12 (stereo not drawn) | 5.45% |
| CC(C)CNS(=O)(=O)c1ccc(NC(=O)Cn2nc(-c3ccc(F)cc3)ccc2=O)cc1 | 7.17% |
| Cc1cc(-c2nc(C)c(-c3nnc(SCC(=O)Nc4ccc(Cl)cc4)n3C)s2)no1 | 12.5% |
| CNc1ncnc2sc(-c3ccccc3)cc12 | 6.33% |
| CCOc1ccc(-n2c(-c3ccccc3)c[n+]3c2CCC3)cc1.[Br-] | -7.27% |
| CCCCOc1ccc(C(=O)NCC(=O)N(C)CC(=O)Nc2ccc(N3CCOCC3)cc2)cc1 | 1.37% |
| CCCCCCSc1ncc(C#N)c(N)n1 | 7.43% |
| CC(=O)N1N=C(c2ccccc2O)CC1c1cccs1 (stereo not drawn) | 6.78% |
| Cc1c(C(=O)N2CCOCC2)sc2ncnc(N3CCc4ccccc4C3)c12 | -3.64% |
| CCc1nn(CC(=O)NCCC2=CCCCC2)c(=O)c2cc3cc(F)ccc3n12 | 14.8% |
| COc1ccccc1NS(=O)(=O)c1ccc2c(c1)NC(=O)CC(=O)N2 | 16.1% |
| CC(=O)N(CN1C(=O)C2C3C=CC(C3)C2C1=O)c1cccc(Cl)c1 (stereo not drawn) | 4.72% |
| COc1ccccc1C(=O)Nc1ccc(N2CCN(Cc3ccccc3)CC2)cc1 | 4.75% |
| Cc1cccc(NS(=O)(=O)c2cccc(C(=O)NCC3(N4CCCCC4)CCCCC3)c2)c1 | -45.1% |

| Structure (SMILES) | hERG current change (%, negative = inhibition) at 1uM |
| --- | --- |
| CCC(=O)Nc1cccc(NC(=S)NC(=O)c2ccc(C)cc2)c1 | 5.08% |
| Cc1ccccc1NC(=O)Cc1cn(C)c2ccccc12 | 14.1% |
| CNC(=O)c1cc(C)c(-c2ccccc2)s1 | -13.4% |
| COc1cc2nc(Cl)nc(N3CCOCC3)c2cc1OC | 4.94% |
| Nc1nonc1-n1nnc(C(=O)N/N=C/C2CCCCC2)c1-c1ccccc1 | 12.2% |
| CC(C)n1c(N)c(C#N)c2ccc([N+](=O)[O-])cc2c1=O | -6.91% |
| CN1CCc2nc(SCCOc3ccccc3)c(C#N)cc2C1 | -17% |
| COC(=O)c1ccc(CSc2nc3scc(-c4cccs4)c3c(=O)[nH]2)o1 | 11.2% |
| COC(=O)c1ccc(C(=O)N2CCCC(Nc3ccc(C(C)C)cc3)C2)nc1 (stereo not drawn) | -2.04% |
| COc1ccccc1C(=O)NCCC(=O)N1CCN(S(=O)(=O)c2cccc(Cl)c2)CC1 | -3.23% |
| CC(=O)N1c2ccc(S(=O)(=O)N(C)CC(=O)NC3CCCC3)cc2CC1C (stereo not drawn) | 14.2% |
| COc1ccc(OCC(=O)Nc2ccc3c(c2)n(C)c(=O)n3C)cc1 | 6.3% |
| CC1CCCN(c2ccc(F)cc2N)C1.Cl (stereo not drawn) | 3.89% |
| Cc1nc2c3ccccc3nc(NNC(=O)CCC(=O)N3CCN(c4ccccc4F)CC3)n2n1 | -2.37% |
| O=C(N/N=C/C1CC=CCC1)c1ccc(O)cc1O (stereo not drawn) | 13% |
| COc1ccc(C(=O)Nc2ccc(O)c3c(=O)cc(-c4cccc(Cl)c4)oc23)cc1 | 7.05% |
| Cn1c(=O)c2c(nc(Sc3n[nH]c(N)n3)n2Cc2ccccc2Cl)n(C)c1=O | 12.2% |
| CC(=O)Nc1ccc(OS(=O)(=O)c2ccc(C(C)(C)C)cc2)cc1 | 13.3% |
| COC(=O)Nc1ccc(S(=O)(=O)N2CCCC(C(=O)Nc3cccnc3)C2)cc1 (stereo not drawn) | 6.81% |
| CC1(C)CC(=O)c2cc(OCC(=O)O)ccc2O1 | 4.72% |
| CCN(CC)C(=O)c1ccc(NC(=O)COc2ccccc2F)cc1 | -4.33% |
| C=CCN(CC=C)S(=O)(=O)c1ccc(NC(=S)NC(=O)c2ccc(-c3ccccc3)cc2)cc1 | 9.01% |
| C=CCN(C(=O)c1csnn1)C(C(=O)NC1CCCCC1)c1ccc(C)cc1 (stereo not drawn) | 9% |

| Structure (SMILES) | hERG current change (%, negative = inhibition) at 1uM |
| --- | --- |
| CC(C)(C)OC(=O)NCCCC[C@H](NC(=O)c1nc[nH]c1C(=O)NCC(=O)OCc1ccccc1)C(=O)OC(C)(C)C | -0.947% |
| Cc1ccc(-n2nnc(-c3ccnc4ccccc34)n2)cc1 | 9.68% |
| O=C(O)CNC(=O)c1ccccc1NC(=O)c1ccco1 | 5.8% |
| Cn1nnnc1SCc1ccc(C(=O)Nc2ccc(Br)cc2)cc1 | 14.3% |
| COC(=O)N/N=C(\C)c1ccc(OC(F)F)cc1 | 7.6% |
| COCCn1c(=O)[nH]c2cc(C(=O)N3CCN(c4cccc(C(F)(F)F)c4)CC3)ccc2c1=O | 5.42% |
| COC(=O)/C=C1/SC(=NC(=O)c2ccccc2)NC1=O | 3.08% |
| CCN[C@H]1CN(CCCOC)S(=O)(=O)c2sc(S(N)(=O)=O)cc21 | 7.28% |
| CCn1c(=O)c([N+](=O)[O-])c(NCCCn2ccnc2)c2ccccc21 | 11.2% |
| CC(CCc1ccccc1)NC(=O)CCNS(=O)(=O)c1ccccc1 (stereo not drawn) | 14.4% |
| O=C(NCc1ccccc1)c1nc(-c2cccs2)no1 | -3.84% |
| Cc1ccc(C(=O)NCCc2nnc(SCC(=O)Nc3nc(-c4ccccc4)cs3)n2C)cc1 | -0.384% |
| O=C(O)c1cccc(NS(=O)(=O)c2ccc3c4c(cccc24)C(=O)N3)c1 | 20.1% |
| O=C(NCc1ccco1)c1cc2c(s1)CSC2 | 2.37% |
| Cl.OCCNCCOc1ccc(Cl)c(Cl)c1 | 1.67% |
| O=C(O)C(=O)O.c1ccc(COc2ccc(OCCCN3CCCC3)cc2)cc1 | -39.1% |
| COCCCn1c(=O)/c(=C\c2ccc(OC(F)F)c(OC)c2)s/c1=C(/C#N)C(=O)NCCOC | 13.7% |
| COC(=O)c1sc2nc(CN3CCN(c4ccc(OC)cc4)CC3)[nH]c(=O)c2c1C | 12.9% |
| CN(C)C(=O)C1CCC(=O)N1Cc1cccs1 (stereo not drawn) | 8.72% |
| CC1(C)C2C(Cl)(Cl)C2(C)c2ccccc2N1C=O (stereo not drawn) | 8.72% |
| CC(C)c1ccccc1NC1=CC(=O)CC(C)(C)C1 | 11.9% |
| O=C(Cc1ccccc1)NCCc1c[nH]c2ccccc12.O=C(O)C(=O)O | 15.2% |
| CC1(OC(=O)C2CCCC2)C(=O)C=C2C=C(c3ccsc3)N(C3CCCC3)C=C2C1=O (stereo not drawn) | -12% |

| Structure (SMILES) | hERG current change (%, negative = inhibition) at 1uM |
| --- | --- |
| Cc1cc(=O)oc2cc(OCC(=O)Nc3ccccc3C(=O)O)ccc12 | 11% |
| O=C(CSc1nnc(-c2ccoc2)o1)N1CCOCC1 | 3.43% |
| CCN(c1cccc(C)c1)C1C(=O)c2ccccc2N1C(C)=O (stereo not drawn) | 13.6% |
| CC(C)(C)c1ccc(NC(=O)COC(=O)C2CCCC2)cc1 | 11.4% |
| c1coc(Cn2c(-c3ccco3)nc3ccccc32)c1 | -2.63% |
| Cc1cccc(N2CSC3=C(C#N)C(c4ccc(C)o4)CC(=O)N3C2)c1 (stereo not drawn) | 8.62% |
| Cc1ccc(N(CC(=O)O)S(C)(=O)=O)cc1Cl | 11.1% |
| CC(C)(C)NS(=O)(=O)c1ccc(OCC(=O)NCCC2=CCCCC2)cc1 | -0.772% |
| COC(=O)c1ccccc1NC(=S)N1CCN(c2ccccn2)CC1 | 9.29% |
| CCC(C)/C(C)=N/Nc1ccc(S(N)(=O)=O)cc1[N+](=O)[O-] (stereo not drawn) | 3.58% |
| O=C(O)CC(NC(=O)C(F)(F)F)c1ccc2c(c1)OCO2 (stereo not drawn) | 13.9% |
| Cc1ccc(NC(=O)c2ccc(F)cc2)cc1S(=O)(=O)N1CCCCCC1 | 4.07% |
| CCCCn1c(CNC(=O)C23CC4CC(CC(C4)C2)C3)nnc1SC(C)CC (stereo not drawn) | 4.2% |
| FC(F)(F)c1cccc(-c2cc3ccccc3nc2N2CCCC2)c1 | 10.4% |
| O=C(CSc1nc2ncccc2[nH]1)NC1CCCCC1 | 15% |
| COc1ccccc1CC(=O)NCCN1CCCCC1 | 10.7% |
| O=C(NCCCN1CCOCC1)c1ccc(Sc2ccc(F)cc2)c([N+](=O)[O-])c1 | -8.71% |
| COc1ccc(Cl)cc1C(=O)NNC(=S)NC(=O)c1cc(-c2ccc(Cl)cc2)nc2ccccc12 | 5.94% |
| NC(=O)c1ccc(Nc2nnc(-c3ccc(O)cc3)c3ccccc23)cc1 | 11.5% |
| Cc1cc(C)cc(OCC(=O)Nc2ccccc2C(=O)N2CCOCC2)c1 | 10.7% |
| O=C(CCc1ccncc1)NC1CCCc2c1cnn2-c1cc(F)cc(F)c1 (stereo not drawn) | -28.5% |
